# Measurements taken from article PMC9911399, “Two distinct binding modes provide the RNA-binding protein RbFox with extraordinary sequence specificity”.
# Residue numbers refer to the chain shown, from its start. Some of the results follow.
# T1: RBFOX1 RRM RbFoxmut (Fox-RRM*) (Homo sapiens, UniProt Q9NWB1 109-208, R118D;E147R;N151S;E152T)
# T1 sequence: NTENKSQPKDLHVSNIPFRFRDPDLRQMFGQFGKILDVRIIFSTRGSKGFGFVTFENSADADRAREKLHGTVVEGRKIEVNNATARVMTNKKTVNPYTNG
# B1: AAAUUAU (DNA:RNA)
# RNA: GGGAGACCGGAAUUCAGAUUGUCCAAAUUAUUUAAAUCCCGUCGUAGCCACCA
# DNA 1: CAATCTGAATTCCGGTCTCCC
# DNA 2: TGGTGGCTACGACGGGATT
# B2: UUGGCAA (DNA:RNA)
# RNA: B1 RNA with A25U, A26U, A27G, U28G, U29C, U31A
# DNA 1: CAATCTGAATTCCGGTCTCCC
# DNA 2: TGGTGGCTACGACGGGATT
# B3: GUUCCUG (DNA:RNA)
# RNA: GGGAGACCGGAAUUCAGAUUGUCCGUUCCUGUUAAAUCCCGUCGUAGCCACCA
# DNA 1: CAATCTGAATTCCGGTCTCCC
# DNA 2: TGGTGGCTACGACGGGATT
# B4: ACACAAC (DNA:RNA)
# RNA: B1 RNA with A26C, U28C, U29A, U31C
# DNA 1: CAATCTGAATTCCGGTCTCCC
# DNA 2: TGGTGGCTACGACGGGATT
# B5: AUAAUCA (DNA:RNA)
# RNA: B1 RNA with A26U, U28A, A30C, U31A
# DNA 1: CAATCTGAATTCCGGTCTCCC
# DNA 2: TGGTGGCTACGACGGGATT
# B6: CGGGAGG (DNA:RNA)
# RNA: B3 RNA with G25C, U26G, U27G, C28G, C29A, U30G
# DNA 1: CAATCTGAATTCCGGTCTCCC
# DNA 2: TGGTGGCTACGACGGGATT
# B7: GCGACGG (DNA:RNA)
# RNA: B3 RNA with U26C, U27G, C28A, U30G
# DNA 1: CAATCTGAATTCCGGTCTCCC
# DNA 2: TGGTGGCTACGACGGGATT
# B8: GGACGAG (DNA:RNA)
# RNA: B3 RNA with U26G, U27A, C29G, U30A
# DNA 1: CAATCTGAATTCCGGTCTCCC
# DNA 2: TGGTGGCTACGACGGGATT
# B9: AGCGAGA (DNA:RNA)
# RNA: B1 RNA with A26G, A27C, U28G, U29A, A30G, U31A
# DNA 1: CAATCTGAATTCCGGTCTCCC
# DNA 2: TGGTGGCTACGACGGGATT
# B10: CCUUUCU (DNA:RNA)
# RNA: B1 RNA with A25C, A26C, A27U, A30C
# DNA 1: CAATCTGAATTCCGGTCTCCC
# DNA 2: TGGTGGCTACGACGGGATT
# B11: UACUUUA (DNA:RNA)
# RNA: B1 RNA with A25U, A27C, A30U, U31A
# DNA 1: CAATCTGAATTCCGGTCTCCC
# DNA 2: TGGTGGCTACGACGGGATT
# B12: CUUUACC (DNA:RNA)
# RNA: B3 RNA with G25C, C28U, C29A, U30C, G31C
# DNA 1: CAATCTGAATTCCGGTCTCCC
# DNA 2: TGGTGGCTACGACGGGATT
# B13: CUAGUGA (DNA:RNA)
# RNA: B1 RNA with A25C, A26U, U28G, A30G, U31A
# DNA 1: CAATCTGAATTCCGGTCTCCC
# DNA 2: TGGTGGCTACGACGGGATT
# B14: CAAGAUC (DNA:RNA)
# RNA: B1 RNA with A25C, U28G, U29A, A30U, U31C
# DNA 1: CAATCTGAATTCCGGTCTCCC
# DNA 2: TGGTGGCTACGACGGGATT
# B15: UAUCACU (DNA:RNA)
# RNA: B1 RNA with A25U, A27U, U28C, U29A, A30C
# DNA 1: CAATCTGAATTCCGGTCTCCC
# DNA 2: TGGTGGCTACGACGGGATT
# B16: GGCUCCU (DNA:RNA)
# RNA: B1 RNA with A25G, A26G, A27C, U29C, A30C
# DNA 1: CAATCTGAATTCCGGTCTCCC
# DNA 2: TGGTGGCTACGACGGGATT
# B17: AACAUCG (DNA:RNA)
# RNA: B1 RNA with A27C, U28A, A30C, U31G
# DNA 1: CAATCTGAATTCCGGTCTCCC
# DNA 2: TGGTGGCTACGACGGGATT
# B18: CGCGUGU (DNA:RNA)
# RNA: B1 RNA with A25C, A26G, A27C, U28G, A30G
# DNA 1: CAATCTGAATTCCGGTCTCCC
# DNA 2: TGGTGGCTACGACGGGATT
# B19: ACCCCCC (DNA:RNA)
# RNA: B3 RNA with G25A, U26C, U27C, U30C, G31C
# DNA 1: CAATCTGAATTCCGGTCTCCC
# DNA 2: TGGTGGCTACGACGGGATT
# B20: CGGCCGG (DNA:RNA)
# RNA: B3 RNA with G25C, U26G, U27G, U30G
# DNA 1: CAATCTGAATTCCGGTCTCCC
# DNA 2: TGGTGGCTACGACGGGATT
# B21: GGGUUUA (DNA:RNA)
# RNA: B1 RNA with A25G, A26G, A27G, A30U, U31A
# DNA 1: CAATCTGAATTCCGGTCTCCC
# DNA 2: TGGTGGCTACGACGGGATT
# B22: AGAUCCA (DNA:RNA)
# RNA: B1 RNA with A26G, U29C, A30C, U31A
# DNA 1: CAATCTGAATTCCGGTCTCCC
# DNA 2: TGGTGGCTACGACGGGATT
# B23: GUGGCUU (DNA:RNA)
# RNA: B3 RNA with U27G, C28G, G31U
# DNA 1: CAATCTGAATTCCGGTCTCCC
# DNA 2: TGGTGGCTACGACGGGATT
# B24: UUCUAUU (DNA:RNA)
# RNA: B1 RNA with A25U, A26U, A27C, U29A, A30U
# DNA 1: CAATCTGAATTCCGGTCTCCC
# DNA 2: TGGTGGCTACGACGGGATT
# B25: CCUUGAA (DNA:RNA)
# RNA: B1 RNA with A25C, A26C, A27U, U29G, U31A
# DNA 1: CAATCTGAATTCCGGTCTCCC
# DNA 2: TGGTGGCTACGACGGGATT
# B26: UUGUAUA (DNA:RNA)
# RNA: B3 RNA with G25U, U27G, C28U, C29A, G31A
# DNA 1: CAATCTGAATTCCGGTCTCCC
# DNA 2: TGGTGGCTACGACGGGATT
# B27: CAGGCCU (DNA:RNA)
# RNA: B1 RNA with A25C, A27G, U28G, U29C, A30C
# DNA 1: CAATCTGAATTCCGGTCTCCC
# DNA 2: TGGTGGCTACGACGGGATT
# B28: CUGGCAC (DNA:RNA)
# RNA: B3 RNA with G25C, U27G, C28G, U30A, G31C
# DNA 1: CAATCTGAATTCCGGTCTCCC
# DNA 2: TGGTGGCTACGACGGGATT
# B29: UUGGAGA (DNA:RNA)
# RNA: B3 RNA with G25U, U27G, C28G, C29A, U30G, G31A
# DNA 1: CAATCTGAATTCCGGTCTCCC
# DNA 2: TGGTGGCTACGACGGGATT
# B30: GUUAAAA (DNA:RNA)
# RNA: B3 RNA with C28A, C29A, U30A, G31A
# DNA 1: CAATCTGAATTCCGGTCTCCC
# DNA 2: TGGTGGCTACGACGGGATT
# B31: AUACAUA (DNA:RNA)
# RNA: B3 RNA with G25A, U27A, C29A, G31A
# DNA 1: CAATCTGAATTCCGGTCTCCC
# DNA 2: TGGTGGCTACGACGGGATT
# Target: T1, RBFOX1 RRM RbFoxmut (Fox-RRM*)
# Experiment: EMSA; HiTS-Eq, 1 nM pool, 10 min; buffer printed only for the single-RNA assays: 10 mM Tris pH 7.5, 150 mM NaCl, 3.4 mM EDTA, 0.001% NP-40, 30 C
# Conditions: tags: His6 N-terminal (pET28a); label: 5' 32P
# Method in brief: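 Purified RbFox RRM, wild type or mutant, was incubated for 10 min in 50 µL with 1 nM of a 5′-radiolabelled RNA pool carrying 7 randomized nucleotides, whose flanks were annealed to DNA oligonucleotides, over a series of increasing protein concentrations. Unbound RNA was resolved on 8% native PAGE, cut out, reverse-transcribed, barcoded by PCR and sequenced on an Illumina HiSeq 2500. Relative association constants were derived from changes in read counts for each RNA species versus the control reaction and normalised to the cognate motif.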
row,Binder,binding signal
1,B1,0.099 KA relative to UGCAUGU
2,B2,0.0846 KA relative to UGCAUGU
3,B3,0.094 KA relative to UGCAUGU
4,B4,0.0726 KA relative to UGCAUGU
5,B5,0.0919 KA relative to UGCAUGU
6,B6,0.121 KA relative to UGCAUGU
7,B7,0.0987 KA relative to UGCAUGU
8,B8,0.106 KA relative to UGCAUGU
9,B9,0.119 KA relative to UGCAUGU
10,B10,0.0619 KA relative to UGCAUGU
11,B11,0.12 KA relative to UGCAUGU
12,B12,0.116 KA relative to UGCAUGU
13,B13,0.074 KA relative to UGCAUGU
14,B14,0.0747 KA relative to UGCAUGU
15,B15,0.069 KA relative to UGCAUGU
16,B16,0.0894 KA relative to UGCAUGU

row,Binder,binding signal
1,B17,0.0925 KA relative to UGCAUGU
2,B18,0.184 KA relative to UGCAUGU
3,B19,0.0509 KA relative to UGCAUGU
4,B20,0.0905 KA relative to UGCAUGU
5,B21,0.143 KA relative to UGCAUGU
6,B22,0.0729 KA relative to UGCAUGU
7,B23,0.102 KA relative to UGCAUGU
8,B24,0.0916 KA relative to UGCAUGU
9,B25,0.102 KA relative to UGCAUGU
10,B26,0.208 KA relative to UGCAUGU
11,B27,0.0816 KA relative to UGCAUGU
12,B28,0.0831 KA relative to UGCAUGU
13,B29,0.0955 KA relative to UGCAUGU
14,B30,0.108 KA relative to UGCAUGU
15,B31,0.12 KA relative to UGCAUGU
